The values below come from article PMC4336329 (PLoS ONE, 2015).

Among all 310,000 compounds or so, about 2,200 (0.71%) showed an effect of 50% or more. Effects have a minus sign here. This is one part of the list.

human ether-à-go-go-related gene (hERG) potassium channel, sequence (Q12809 whole entry, looked up): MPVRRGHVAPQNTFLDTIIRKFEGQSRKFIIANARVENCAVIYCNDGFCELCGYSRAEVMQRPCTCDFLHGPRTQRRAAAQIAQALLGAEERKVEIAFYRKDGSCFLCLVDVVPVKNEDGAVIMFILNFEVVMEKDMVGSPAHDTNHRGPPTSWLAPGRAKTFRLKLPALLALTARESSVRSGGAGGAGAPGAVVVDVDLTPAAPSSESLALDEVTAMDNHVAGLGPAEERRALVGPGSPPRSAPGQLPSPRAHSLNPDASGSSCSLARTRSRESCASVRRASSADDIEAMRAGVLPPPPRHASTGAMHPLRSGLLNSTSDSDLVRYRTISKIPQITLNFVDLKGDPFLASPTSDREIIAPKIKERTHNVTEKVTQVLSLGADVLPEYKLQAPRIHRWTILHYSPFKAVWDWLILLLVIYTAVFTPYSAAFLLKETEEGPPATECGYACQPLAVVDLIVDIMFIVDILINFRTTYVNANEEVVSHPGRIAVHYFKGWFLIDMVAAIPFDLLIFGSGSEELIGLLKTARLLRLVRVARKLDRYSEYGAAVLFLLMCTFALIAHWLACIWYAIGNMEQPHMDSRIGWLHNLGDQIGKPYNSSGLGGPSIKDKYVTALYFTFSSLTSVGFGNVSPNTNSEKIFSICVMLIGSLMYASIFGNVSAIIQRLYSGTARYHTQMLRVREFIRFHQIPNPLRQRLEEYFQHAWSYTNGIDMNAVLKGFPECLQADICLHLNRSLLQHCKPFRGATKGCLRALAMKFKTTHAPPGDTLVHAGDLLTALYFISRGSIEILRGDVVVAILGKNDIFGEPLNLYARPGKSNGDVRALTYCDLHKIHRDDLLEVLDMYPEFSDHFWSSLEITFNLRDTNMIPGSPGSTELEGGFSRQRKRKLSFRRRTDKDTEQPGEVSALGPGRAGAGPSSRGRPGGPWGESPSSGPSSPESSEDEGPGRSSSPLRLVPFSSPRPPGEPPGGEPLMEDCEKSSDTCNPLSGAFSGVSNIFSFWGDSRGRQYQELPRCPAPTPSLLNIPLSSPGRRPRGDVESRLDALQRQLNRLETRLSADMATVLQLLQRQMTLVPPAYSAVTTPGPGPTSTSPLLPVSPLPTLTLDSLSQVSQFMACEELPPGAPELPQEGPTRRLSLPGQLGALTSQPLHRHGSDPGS

The assay concerns the target human ether-à-go-go-related gene (hERG) potassium channel (human, UniProt Q12809). Put plainly: primary screen, population patch clamp on CHO cells stably expressing hERG.
As to `c1ccc2c(c1)[nH]c1c(N3CCCC3)ncnc12`, the “hERG current change (%, negative = inhibition) at 1uM” value came to 5.61%.
The figure for `Cc1ccccc1NC(=O)C1CCC(C)(C(=O)O)C1(C)C` (centres unmarked) is 16.3%.
For `O=C(COC(=O)CNC(=O)C1CCCCC1)NCc1ccccc1` the value was 1.68%; for `O=C(CNC(=O)c1ccco1)OCC(=O)c1ccc(Cl)cc1Cl`, 11.1%.
For `CCOC(=O)c1sc(NC(=O)c2c(OC)cccc2OC)nc1C` the value was 7.46%; for `COc1ccc(OCCOc2ccc(S(=O)(=O)N3CCCC3)cc2C(N)=O)cc1`, -3%; for `O=C1CCc2cc(S(=O)(=O)NCc3ccc(F)cc3)cc3c2N1CCC3`, 2.52%.
`COc1cccc(CNC(=O)CN2c3cccc4cccc(c34)S2(=O)=O)c1`: the “hERG current change (%, negative = inhibition) at 1uM” value is reported as 2.9%.
As for `O=C(COC(=O)c1cccc(S(=O)(=O)N2CCN(c3ccccc3)CC2)c1)NCc1ccco1`, the “hERG current change (%, negative = inhibition) at 1uM” value was 1.45%.
The figure for `COCCCn1c(SCC(=O)N2CCc3ccccc32)nnc1-c1ccco1` is 1.5%.
The figure for `CC(C)CC(=O)Nc1ccc2c(c1)oc1ccccc12` is 12%.
For `COc1ccc(Cl)cc1C(=O)OCC(=O)N(C)CC(=O)Nc1ccc(F)cc1` the value was 0.0097%; for `C=CCSc1n[nH]c(-c2ccc(OCCCC)cc2)n1`, 2.58%; for `CCc1ccc(NC(=O)[C@H](Cc2ccccc2)NC(=O)C2CCN(C(=O)[C@@H](N)CC(C)C)CC2)cc1`, 0.234%.
Take `CCc1ccc(C(=O)COC(=O)c2cccs2)cc1`: the “hERG current change (%, negative = inhibition) at 1uM” value came out at 10.1%.
The figure for `COc1ccc(C(=O)NCc2nnc(SCC(=O)Nc3cccc(OC)c3)o2)cc1` is 7.96%; for `O=C(CCN1C(=O)/C(=C/c2ccccc2Cl)SC1=S)NN1CCOCC1` it is 5.74%; for `O=C(O)CSc1cccc[n+]1[O-]` it is -2.25%.
The figure for `C/C(=N\NC(=O)c1c(Br)c(C)nn1C)c1ccc(NC(=O)C(C)Oc2ccc(Cl)cc2C)cc1` (centres unmarked) is 5.27%; for `CN(CC(=O)N1CCCCCC1)S(=O)(=O)c1ccc(Br)s1` it is 0.744%; for `CCn1c(=NC(=O)c2ccc(S(=O)(=O)N3CCOCC3)cc2)sc2cccc(OC)c21` it is 7.72%.
The figure for `CCC(C)NS(=O)(=O)c1ccc(OCC(=O)N2CCC(C)CC2)cc1` (centres unmarked) is 12.3%; for `COC(=O)CCC(=O)OC1(C)C(=O)C2=CN(CCCOC(C)C)C(c3ccc(OC)cc3)=CC2=C(Br)C1=O` (centres unmarked) it is 6.32%.
`COc1ccc2nc(NC(=O)CS(=O)(=O)Cc3ccccc3)sc2c1`: the “hERG current change (%, negative = inhibition) at 1uM” value was determined as 1.1%.
The figure for `Cc1ccccc1N1CCN(Cc2nc(Cc3ccccc3)no2)CC1` is 8.68%; for `Cc1ccc2nc(C)c3c(c2c1)OC(C(C)(Cl)Br)C3` (centres unmarked) it is 6.44%.
Turning to `CCOC(=O)c1cc2c(C)nn(-c3ccccc3)c2s1`, the “hERG current change (%, negative = inhibition) at 1uM” value was -0.451%.
Regarding `CCOC(=O)c1sc(NC(=O)c2ccccc2OC)nc1C`, the “hERG current change (%, negative = inhibition) at 1uM” value amounted to 18.7%.
The figure for `CC12C=CC3(O1)C(C(=O)N1CCCOC13)C2C(=O)O` (centres unmarked) is 10.9%; for `CCc1ccc(N(C(=O)c2snc(C(N)=O)c2N)C(C(=O)NC2CCCC2)c2ccncc2)cc1` (centres unmarked) it is 10.8%.
The figure for `O=C(O)c1ccc(CSc2nc3ccc(N4C(=O)C5C6C=CC(C6)C5C4=O)cc3s2)cc1` (centres unmarked) is -36.1%.
For `OC(CSc1ccccc1Cl)CN1CCN(c2ccccc2F)CC1` (centres unmarked) the value was 1.43%; for `Cc1ccc(NC(=O)CSCC(=O)NC2(C)CCS(=O)(=O)C2)cc1` (centres unmarked), 12.9%.
Regarding `Cc1cc(-c2ccc(S(=O)(=O)N3CCN(c4ccccc4F)CC3)s2)on1`, the “hERG current change (%, negative = inhibition) at 1uM” value came to 9.19%.
For `O=C(NC(=S)Nc1ccc2oc(-c3ccncc3)nc2c1)c1ccccc1F` the value was 11.5%.
For `NNC(=O)Cn1c(COc2ccc(Cl)cc2)nc2ccccc21` the value was 4.77%.
On to `CCCC1(C(=O)O)NC(c2cccc(OC)c2O)C2C(=O)N(c3ccccc3)C(=O)C21` (centres unmarked), for which the “hERG current change (%, negative = inhibition) at 1uM” value is given as 3.47%.
In the case of `Cc1ccc(NC(=O)COc2ccc(Br)cn2)cc1`, the “hERG current change (%, negative = inhibition) at 1uM” value was found to be 8.55%.
As to `Cc1oc(-c2ccccc2)nc1CN1C(=O)C(C)N=C(c2ccccc2F)c2cc(Cl)ccc21` (centres unmarked), the “hERG current change (%, negative = inhibition) at 1uM” value is -0.714%.
For `O=C(NCC1CCCO1)C1c2ccccc2C(=O)N1C1CCCCCC1` (centres unmarked) the value was -12.5%; for `O=C(NCC1CCCO1)c1onc(CSc2ccc(Cl)cc2)c1C(=O)O` (centres unmarked), 14.7%; for `Cc1cccc(NC(=O)c2cc(C)nc3ccccc23)c1`, 17.4%.
Turning to `CCCOc1ccccc1N1C(=O)CC(N(O)c2ccccc2)C1=O` (centres unmarked), the “hERG current change (%, negative = inhibition) at 1uM” value turned out to be 6.89%.
For `COc1ccc(F)cc1CN1CCN(CC(=O)N2CCc3ccccc32)CC1` the value was 0.281%.
